The other results are listed elsewhere or left out.
B1: PhoQ; a variant is named by its letters at X, in order, P23837 (parent)
chain: MKKLLRLFFPLSLRVRFLLATAAVVLVLSLAYGMVALIGYSVSFDKTTFRLLRGESNLFYTLAKWENNKLHVELPENIDKQSPTMTLIYDENGQLLWAQRDVPWLMKMIQPDWLKSNGFHEIEADVNDTSLLLSGDHSIQQQLQEVREDDDDAEMTHSVAVNVYPATSRMPKLTIVVVDTIPVELKSSYMVWSWFIYVLSANLLLVIPLLWVAAWWSLRPIEALAKEVRELEEHNRELLNPATTRELTSLVRNLNRLLKSERERYDKYRTTLTDLTHSLKTPLXXLQXXLRSLRSEKMSVSDAEPVMLEQISRISQQIGYYLHRASMRGGTLLSRELHPVAPLLDNLTSALNKVYQRKGVNISLDISPEISFVGEQNDFVEVMGNVLDNACKYCLEFVEISARQTDEHLYIVVEDDGPGIPLSKREVIFDRGQRVDTLRPGQGVGLAVAREITEQYEGKIVAGESMLGGARMEVIFGRQHSAPKDE

Variants of: B1
Test: enrichment ratio after two sorts for PhoP signalling (ratio (wild type AVST 3.29)); higher = more functional
Details: with PhoP (E. coli)

Variant | enrichment ratio
HHHM | ≤ 0.25
GIKV | ≤ 0.25
SMGR | ≤ 0.25
EGNF | ≤ 0.25
EDLL | ≤ 0.25
YTCV | ≤ 0.25
VDNL | ≤ 0.25
QQGG | ≤ 0.25
WMAL | ≤ 0.25
TWLP | ≤ 0.25
SHIS | ≤ 0.25
DTGS | ≤ 0.25
AFYP | ≤ 0.25
RCGL | ≤ 0.25
KNCS | ≤ 0.25
VIDR | ≤ 0.25
GRAT | ≤ 0.25
HCHK | ≤ 0.25
IANA | ≤ 0.25
WMTG | ≤ 0.25
GQYK | ≤ 0.25
WSNS | ≤ 0.25
FPYK | ≤ 0.25
PNEQ | ≤ 0.25

Variant | enrichment ratio
GTFK | ≤ 0.25
VCVL | ≤ 0.25
FYEF | ≤ 0.25
IETG | ≤ 0.25
GTDV | ≤ 0.25
GNMK | ≤ 0.25
HHNI | ≤ 0.25
LRLH | ≤ 0.25
ACLN | 13.6
PCTI | ≤ 0.25
FVYS | ≤ 0.25
RFAE | ≤ 0.25
VLIE | ≤ 0.25
THND | 29.6
WWSE | ≤ 0.25
YTFG | ≤ 0.25
LSKG | ≤ 0.25
KWPS | ≤ 0.25
NHQI | ≤ 0.25
WCPW | ≤ 0.25
DNNA | ≤ 0.25
GFMP | ≤ 0.25
PNKY | ≤ 0.25
EPHC | ≤ 0.25

Variant | enrichment ratio
QCPH | ≤ 0.25
SPGC | ≤ 0.25
APMQ | ≤ 0.25
LDTW | ≤ 0.25
VKDS | ≤ 0.25
VRWF | ≤ 0.25
RYIR | ≤ 0.25
TWQC | ≤ 0.25
PCKY | ≤ 0.25
HESE | ≤ 0.25
GKAQ | ≤ 0.25
IQAM | ≤ 0.25
IRAM | ≤ 0.25
AYNS | ≤ 0.25
RICA | ≤ 0.25
AHQL | ≤ 0.25
SNNP | ≤ 0.25
PYPC | ≤ 0.25
DVII | ≤ 0.25
YGGM | ≤ 0.25
SVEL | ≤ 0.25
FQQG | ≤ 0.25
EAQH | ≤ 0.25
ANNM | 12.9

Variant | enrichment ratio
ERPM | ≤ 0.25
LCLT | ≤ 0.25
PYMI | ≤ 0.25
HAFL | ≤ 0.25
VEIT | ≤ 0.25
IAKW | ≤ 0.25
HPPL | ≤ 0.25
GNIA | ≤ 0.25
LHIL | ≤ 0.25
DNSN | ≤ 0.25
IGNM | ≤ 0.25
WDWL | ≤ 0.25
GWLY | ≤ 0.25
TSIR | ≤ 0.25
FDLN | ≤ 0.25
QCSN | 17.6
DDPI | ≤ 0.25
IFHY | ≤ 0.25
WQNS | ≤ 0.25
QAYA | ≤ 0.25
TKNC | 8.5
IEIE | ≤ 0.25
HQQP | ≤ 0.25
YKYK | ≤ 0.25

Variant | enrichment ratio
TEWM | 73.1
LDEM | ≤ 0.25
MAMQ | ≤ 0.25
SYPW | ≤ 0.25
DMDS | ≤ 0.25
FLAA | ≤ 0.25
WPYW | ≤ 0.25
NFDF | ≤ 0.25
AVRF | ≤ 0.25
KMVR | ≤ 0.25
KLVT | ≤ 0.25
EQSQ | ≤ 0.25
NDIF | ≤ 0.25
NHNM | ≤ 0.25
LPEW | ≤ 0.25
WQLA | ≤ 0.25
HSYF | ≤ 0.25
LRGV | ≤ 0.25
NVWR | ≤ 0.25
QWSI | ≤ 0.25
EPSW | ≤ 0.25
YHEK | ≤ 0.25
GFSP | ≤ 0.25
AHPC | ≤ 0.25

Variant | enrichment ratio
SQIC | 8.67
PDAL | ≤ 0.25
DKQK | ≤ 0.25
NYPD | ≤ 0.25
GRLE | ≤ 0.25
GYDM | ≤ 0.25
KFSM | ≤ 0.25
WWFH | ≤ 0.25
PCFK | ≤ 0.25
SLLW | ≤ 0.25
NRFI | ≤ 0.25
MIYY | ≤ 0.25
AFII | ≤ 0.25
DKCH | ≤ 0.25
HFQN | ≤ 0.25
HQPI | ≤ 0.25
NPGC | ≤ 0.25
FSLC | 12.4
FCDT | ≤ 0.25
YWYF | ≤ 0.25
WTLT | ≤ 0.25
KHTS | ≤ 0.25
SSVK | ≤ 0.25
SGDR | ≤ 0.25

Variant | enrichment ratio
NSAH | ≤ 0.25
LWNM | ≤ 0.25
TRVF | ≤ 0.25
HRGL | ≤ 0.25
TKYK | ≤ 0.25
WEDW | ≤ 0.25
TACG | 8.73
VKWA | ≤ 0.25
SGQM | 14.7
GKQC | ≤ 0.25
DHSL | ≤ 0.25
PHWA | ≤ 0.25
ITVV | ≤ 0.25
PCFL | ≤ 0.25
KEHV | ≤ 0.25
MKAA | ≤ 0.25
THMG | 2.89
RDVA | ≤ 0.25
FMLS | ≤ 0.25
LSDI | ≤ 0.25
IQAW | ≤ 0.25
MFAW | ≤ 0.25
DKKR | ≤ 0.25
FSPE | ≤ 0.25

Variant | enrichment ratio
NYVG | ≤ 0.25
TQDP | ≤ 0.25
KRRT | ≤ 0.25
LFKE | ≤ 0.25
QTGN | ≤ 0.25
GKGM | ≤ 0.25
ASWD | ≤ 0.25
QHVN | ≤ 0.25
NIRQ | ≤ 0.25
YNRG | ≤ 0.25
FFQV | ≤ 0.25
GYWF | ≤ 0.25
HLKH | ≤ 0.25
QMSE | 3.77
KGIP | ≤ 0.25
EDNL | ≤ 0.25
NRLS | ≤ 0.25
MLNK | ≤ 0.25
LVGT | ≤ 0.25
DVVQ | ≤ 0.25
RRHK | ≤ 0.25
DPHF | ≤ 0.25
TNGP | ≤ 0.25
RWHF | ≤ 0.25

Variant | enrichment ratio
ARWS | ≤ 0.25
LHIH | ≤ 0.25
SELI | 24.6
VLDD | ≤ 0.25
QNYA | ≤ 0.25
WARA | ≤ 0.25
QQET | ≤ 0.25
YPMI | ≤ 0.25
MPYY | ≤ 0.25
PRFI | ≤ 0.25
NCGW | ≤ 0.25
PRKL | ≤ 0.25
NCDY | ≤ 0.25
PWHR | ≤ 0.25
SFWT | ≤ 0.25
KSNQ | ≤ 0.25
MPFK | ≤ 0.25
DDAR | ≤ 0.25
YCFW | ≤ 0.25
IGVH | ≤ 0.25
NDPK | ≤ 0.25
PCYS | ≤ 0.25
DCIP | ≤ 0.25
TDCS | 11.3

Variant | enrichment ratio
HSLR | ≤ 0.25
TEKY | ≤ 0.25
RGCR | ≤ 0.25
PATP | ≤ 0.25
SQEC | ≤ 0.25
KIPI | ≤ 0.25
TPFK | ≤ 0.25
KQKD | ≤ 0.25
LKDG | ≤ 0.25
DVEN | ≤ 0.25
KPPC | ≤ 0.25
TVNP | ≤ 0.25
WTNF | ≤ 0.25
HFNN | ≤ 0.25
ILPH | ≤ 0.25
FMKP | ≤ 0.25
WHSW | ≤ 0.25
ATPA | ≤ 0.25
RKGI | ≤ 0.25
NVES | ≤ 0.25
IQCM | ≤ 0.25
TYFT | ≤ 0.25
SAFG | ≤ 0.25
IMGD | ≤ 0.25

Variant | enrichment ratio
WMDG | ≤ 0.25
PTGR | ≤ 0.25
ERGH | ≤ 0.25
TNNN | 14.7
TPDG | ≤ 0.25
MFMG | ≤ 0.25
KTCP | ≤ 0.25
YTAC | ≤ 0.25
AEIQ | 24.4
HPNY | ≤ 0.25
YIYI | ≤ 0.25
FNLW | ≤ 0.25
SWRL | ≤ 0.25
PYSA | ≤ 0.25
GCCS | 2.84
SCTS | 14.9
SQLQ | 13.6
RSWT | ≤ 0.25
MKGG | ≤ 0.25
EHSA | ≤ 0.25
LNDR | ≤ 0.25
MVVN | ≤ 0.25
NELA | ≤ 0.25
FFAR | ≤ 0.25

Variant | enrichment ratio
YLRQ | ≤ 0.25
SCRH | ≤ 0.25
PYCD | ≤ 0.25
KLQC | ≤ 0.25
DITS | ≤ 0.25
PFWS | ≤ 0.25
FFAA | ≤ 0.25
FWCQ | ≤ 0.25
APFD | ≤ 0.25
QDHA | ≤ 0.25
HMSA | ≤ 0.25
KPLA | ≤ 0.25
ENIS | ≤ 0.25
QIQG | ≤ 0.25
HYND | ≤ 0.25
HWFQ | ≤ 0.25
GDFF | ≤ 0.25
HGPA | ≤ 0.25
HFYY | ≤ 0.25
EYHD | ≤ 0.25
EYYD | ≤ 0.25
MDAC | ≤ 0.25
IQHD | ≤ 0.25
VKET | ≤ 0.25

Variant | enrichment ratio
KPHL | ≤ 0.25
FSTH | ≤ 0.25
MPPD | ≤ 0.25
VGEM | ≤ 0.25
NCDH | ≤ 0.25
FMMT | ≤ 0.25
NICS | ≤ 0.25
HCTH | ≤ 0.25
TSSN | 9.75
RDIM | ≤ 0.25
ENYD | ≤ 0.25
FETA | ≤ 0.25
QCPA | ≤ 0.25
LHHD | ≤ 0.25
WRDP | ≤ 0.25
ALFM | ≤ 0.25
RTHT | ≤ 0.25
SAFI | ≤ 0.25

— a collection of fitness landscapes (doi:10.1126/science.1257360)
